Data from paper PMC10164576, “Interaction with the carboxy-terminal tip of SSB is critical for RecG function in E. coli” (Nucleic Acids Research, 2023).
These are yes or no findings as the source states them, for the method shown. Some binding calls cover weakened binding; strength is not graded here. Values belong to the molecule of their own block, whether it stands above or below them.

Chains of the proteins cited; added tags and fusions are not shown. Lines headed by an entry give the natural chain unless they say otherwise; changes in a name come on top.
UniProt P0AGE0: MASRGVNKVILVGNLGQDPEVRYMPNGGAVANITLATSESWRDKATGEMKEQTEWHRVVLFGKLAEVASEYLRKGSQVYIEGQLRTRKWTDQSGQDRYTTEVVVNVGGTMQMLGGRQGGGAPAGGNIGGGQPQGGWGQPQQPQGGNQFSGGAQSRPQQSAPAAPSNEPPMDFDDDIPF

What was measured:
[1] = molecular target: T1, RecG DNA helicase, wildtype (E. coli, UniProt P24230 1-693); assay: condition: SSBΔF 335 μM injected; RecG 7.41 μM in the cell; ITC; SSB proteins or unlabeled peptides injected into RecG in the cell; 20 mM Tris-HCl pH 8.0, 150 mM NaCl, 10% glycerol, 1 mM EDTA, 1 mM β-mercaptoethanol; 25°C; one-site model; concentrations as monomers; both purified
T1 construct: RecG DNA helicase, E. coli, expressed from overexpression plasmid pEAW111; No tag is mentioned; also called WT RecG; source: E. coli STL2669/pT7pol26 with pEAW111, purified (ammonium sulfate, DEAE, Source 15Q, Source 15S)
T1 sequence (looked up): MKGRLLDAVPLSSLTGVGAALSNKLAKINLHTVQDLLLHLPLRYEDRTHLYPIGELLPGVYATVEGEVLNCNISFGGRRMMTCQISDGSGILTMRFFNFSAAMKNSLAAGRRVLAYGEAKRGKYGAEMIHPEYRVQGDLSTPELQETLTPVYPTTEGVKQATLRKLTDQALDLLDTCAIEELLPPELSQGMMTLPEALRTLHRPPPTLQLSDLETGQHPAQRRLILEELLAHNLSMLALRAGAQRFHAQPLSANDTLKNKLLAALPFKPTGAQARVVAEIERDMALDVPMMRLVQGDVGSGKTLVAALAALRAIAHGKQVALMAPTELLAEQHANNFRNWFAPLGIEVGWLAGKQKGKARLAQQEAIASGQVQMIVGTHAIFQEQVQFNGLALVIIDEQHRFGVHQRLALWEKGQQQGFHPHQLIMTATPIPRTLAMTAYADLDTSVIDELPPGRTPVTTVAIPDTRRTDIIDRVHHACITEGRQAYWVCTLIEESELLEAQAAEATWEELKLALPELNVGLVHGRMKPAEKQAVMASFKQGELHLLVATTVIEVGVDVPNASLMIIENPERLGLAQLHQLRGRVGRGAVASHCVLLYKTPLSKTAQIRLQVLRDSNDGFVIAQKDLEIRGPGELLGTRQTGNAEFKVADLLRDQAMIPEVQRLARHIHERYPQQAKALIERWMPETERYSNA

RecG R474E [2] = molecular target: T2, RecG R474E (E. coli, UniProt P24230 1-693, R474E); assay: condition: SSB 263 μM injected; RecG R474E 12.9 μM in the cell; ITC; SSB proteins or unlabeled peptides injected into RecG in the cell; 20 mM Tris-HCl pH 8.0, 150 mM NaCl, 10% glycerol, 1 mM EDTA, 1 mM β-mercaptoethanol; 25°C; one-site model; concentrations as monomers; both purified
T2 construct: RecG DNA helicase, E. coli, R474E introduced into pEAW111 to give pNJB3; also called Arg474Glu RecG variant; source: E. coli STL2669/pT7pol26 with pNJB3, purified (same scheme as wildtype RecG)
T2 sequence (looked up): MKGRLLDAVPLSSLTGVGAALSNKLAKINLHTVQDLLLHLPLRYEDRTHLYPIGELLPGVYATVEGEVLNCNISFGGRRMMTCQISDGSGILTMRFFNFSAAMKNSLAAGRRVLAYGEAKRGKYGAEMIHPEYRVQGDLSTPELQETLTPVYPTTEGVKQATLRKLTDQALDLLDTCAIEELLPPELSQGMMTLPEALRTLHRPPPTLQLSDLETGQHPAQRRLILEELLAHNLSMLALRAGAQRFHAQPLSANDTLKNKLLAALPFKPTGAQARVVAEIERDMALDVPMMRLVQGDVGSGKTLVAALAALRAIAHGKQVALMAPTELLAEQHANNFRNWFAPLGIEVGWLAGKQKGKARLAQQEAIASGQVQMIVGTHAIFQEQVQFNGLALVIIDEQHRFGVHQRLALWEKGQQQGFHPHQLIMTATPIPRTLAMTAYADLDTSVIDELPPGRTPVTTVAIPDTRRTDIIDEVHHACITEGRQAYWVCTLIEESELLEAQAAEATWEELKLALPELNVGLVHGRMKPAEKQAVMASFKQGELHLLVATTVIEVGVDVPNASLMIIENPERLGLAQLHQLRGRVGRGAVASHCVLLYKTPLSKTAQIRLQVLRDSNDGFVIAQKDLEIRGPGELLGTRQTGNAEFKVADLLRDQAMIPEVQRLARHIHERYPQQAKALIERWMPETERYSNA

RecG R474E [3] = molecular target: T2, RecG R474E; assay: condition: SSB-Ct peptide 308 μM injected; RecG R474E 12.9 μM in the cell; ITC; SSB proteins or unlabeled peptides injected into RecG in the cell; 20 mM Tris-HCl pH 8.0, 150 mM NaCl, 10% glycerol, 1 mM EDTA, 1 mM β-mercaptoethanol; 25°C; one-site model; concentrations as monomers; both purified
[4] = compound: SSB Gal4 hybrid (E. coli) (UniProt P0AGE0); assay: two-hybrid; Gal4 DNA-binding domain (pGBD) and activation domain (pGAD) fusions in S. cerevisiae pJ69-4a; growth on SD His- and Ade-deficient plates, 30°C, 4-5 days
[5] = molecular target: T3, SSB-Ct peptide, 6-FAM labelled (E. coli); assay: fluorescence polarisation; RecG titrated against 10 nM 6-FAM peptide; 0.2 M potassium glutamate, 1 mM DTT, 0.1 μg/ml BSA, 1x RecA buffer (25 mM Tris-acetate pH 7.6, 5% glycerol, 10 mM magnesium acetate); 30 min at room temperature, read at 25°C; one site binding model, triplicate; both purified
T3 sequence (peptide, 6-FAM label on the N-terminus): WMDFDDDIPF

B1: SSB-Ct peptide, unlabeled (peptide)
peptide: WMDFDDDIPF
notes: N-terminal tryptophan residue added for quantification; C-terminal tip of SSB, E. coli; source: synthetic peptide (Genscript)
binding (RecG R474E [3]): no binding

B2: RecG Gal4 hybrid, wildtype (enzyme, UniProt P24230 1-693)
chain: MKGRLLDAVPLSSLTGVGAALSNKLAKINLHTVQDLLLHLPLRYEDRTHLYPIGELLPGVYATVEGEVLNCNISFGGRRMMTCQISDGSGILTMRFFNFSAAMKNSLAAGRRVLAYGEAKRGKYGAEMIHPEYRVQGDLSTPELQETLTPVYPTTEGVKQATLRKLTDQALDLLDTCAIEELLPPELSQGMMTLPEALRTLHRPPPTLQLSDLETGQHPAQRRLILEELLAHNLSMLALRAGAQRFHAQPLSANDTLKNKLLAALPFKPTGAQARVVAEIERDMALDVPMMRLVQGDVGSGKTLVAALAALRAIAHGKQVALMAPTELLAEQHANNFRNWFAPLGIEVGWLAGKQKGKARLAQQEAIASGQVQMIVGTHAIFQEQVQFNGLALVIIDEQHRFGVHQRLALWEKGQQQGFHPHQLIMTATPIPRTLAMTAYADLDTSVIDELPPGRTPVTTVAIPDTRRTDIIDRVHHACITEGRQAYWVCTLIEESELLEAQAAEATWEELKLALPELNVGLVHGRMKPAEKQAVMASFKQGELHLLVATTVIEVGVDVPNASLMIIENPERLGLAQLHQLRGRVGRGAVASHCVLLYKTPLSKTAQIRLQVLRDSNDGFVIAQKDLEIRGPGELLGTRQTGNAEFKVADLLRDQAMIPEVQRLARHIHERYPQQAKALIERWMPETERYSNA
binding [4]: binds

B3: RecG R474E (enzyme, UniProt P24230 1-693)
chain: MKGRLLDAVPLSSLTGVGAALSNKLAKINLHTVQDLLLHLPLRYEDRTHLYPIGELLPGVYATVEGEVLNCNISFGGRRMMTCQISDGSGILTMRFFNFSAAMKNSLAAGRRVLAYGEAKRGKYGAEMIHPEYRVQGDLSTPELQETLTPVYPTTEGVKQATLRKLTDQALDLLDTCAIEELLPPELSQGMMTLPEALRTLHRPPPTLQLSDLETGQHPAQRRLILEELLAHNLSMLALRAGAQRFHAQPLSANDTLKNKLLAALPFKPTGAQARVVAEIERDMALDVPMMRLVQGDVGSGKTLVAALAALRAIAHGKQVALMAPTELLAEQHANNFRNWFAPLGIEVGWLAGKQKGKARLAQQEAIASGQVQMIVGTHAIFQEQVQFNGLALVIIDEQHRFGVHQRLALWEKGQQQGFHPHQLIMTATPIPRTLAMTAYADLDTSVIDELPPGRTPVTTVAIPDTRRTDIIDEVHHACITEGRQAYWVCTLIEESELLEAQAAEATWEELKLALPELNVGLVHGRMKPAEKQAVMASFKQGELHLLVATTVIEVGVDVPNASLMIIENPERLGLAQLHQLRGRVGRGAVASHCVLLYKTPLSKTAQIRLQVLRDSNDGFVIAQKDLEIRGPGELLGTRQTGNAEFKVADLLRDQAMIPEVQRLARHIHERYPQQAKALIERWMPETERYSNA
binding [5]: no binding (tested: >30 μM)

The remaining lines, values ahead:

binding [1]: no binding
Molecule: SSBΔF protein variant (from UniProt P0AGE0 1-177)

binding (RecG R474E [2]): no binding
Molecule: single-stranded DNA-binding protein (SSB), full-length wildtype (from UniProt P0AGE0 1-178)
